# From the supplement of paper PMC3334620
# Over roughly 33,000 sequences, “E-score (-0.5 to 0.5)” has its median near -0.054; the highest 2% begin near 0.35. This is one part of the list.
# Biological target: T1, Stb5 (UniProt P38699)
# T1 sequence: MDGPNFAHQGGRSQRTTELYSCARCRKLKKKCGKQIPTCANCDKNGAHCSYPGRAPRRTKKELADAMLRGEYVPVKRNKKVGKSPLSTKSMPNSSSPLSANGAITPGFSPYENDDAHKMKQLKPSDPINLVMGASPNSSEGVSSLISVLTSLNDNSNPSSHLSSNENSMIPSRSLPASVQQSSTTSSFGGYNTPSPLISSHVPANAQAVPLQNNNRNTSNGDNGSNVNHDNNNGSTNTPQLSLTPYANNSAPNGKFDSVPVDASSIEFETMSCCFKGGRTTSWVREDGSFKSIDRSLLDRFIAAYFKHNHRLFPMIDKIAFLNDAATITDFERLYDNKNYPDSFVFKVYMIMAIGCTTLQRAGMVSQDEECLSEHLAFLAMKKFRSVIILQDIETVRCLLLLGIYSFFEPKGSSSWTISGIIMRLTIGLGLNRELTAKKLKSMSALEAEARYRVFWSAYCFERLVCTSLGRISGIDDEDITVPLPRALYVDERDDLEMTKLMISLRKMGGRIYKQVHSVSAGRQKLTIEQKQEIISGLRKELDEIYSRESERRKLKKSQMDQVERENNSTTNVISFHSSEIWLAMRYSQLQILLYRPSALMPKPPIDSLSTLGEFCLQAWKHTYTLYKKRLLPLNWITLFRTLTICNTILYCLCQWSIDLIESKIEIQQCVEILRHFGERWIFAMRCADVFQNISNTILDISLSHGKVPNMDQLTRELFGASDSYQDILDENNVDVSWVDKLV
# Test: PBM E-score (8-mer binding enrichment) (E-score (-0.5 to 0.5)); higher = stronger / more preferred TF binding; most listed sequences are background and not binding sites
# Conditions: protein concentration: 200 nM; construct: GST-full length
# Experimental: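 Universal 'all 10-mer' protein binding microarrays (Agilent AMADID 015681) probed with GST-tagged S. cerevisiae TFs (full-length or DBD) made by in vitro transcription/translation (PURExpress), about 100-200 nM. Bound TF was detected with fluorescent anti-GST. Each ungapped 8-mer (which stands for itself and its reverse complement) is scored by the PBM enrichment score (E-score), a modified Wilcoxon-Mann-Whitney statistic from -0.5 to +0.5, computed with the Universal PBM Analysis Suite. Scale: above 0.35 generally sequence-specific binding.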
row,Sequence,PBM E-score
1,CGCGGGAA,0.272
2,GGAGATCA,-0.175
3,ATGGGGCA,-0.113
4,CAACTGAA,-0.216
5,CCGCCGAA,0.347
6,ACCCAGGC,0.127
7,CTCGCAAG,-0.259
8,AGTATTAA,-0.0112
9,AATGAGCG,0.0158
10,CGATATCC,0.0897
11,CGTATAAC,0.0916
12,ACGGCGTC,0.392
13,AATTGGTG,-0.12
14,GCGTCCAC,-0.0568
15,CATTTCCA,-0.272
16,GCTTAAAA,0.175
17,ATACTGCC,0.205
18,CCACCTTA,-0.132
19,CAGTGTCC,-0.0673
20,GTCAGGAA,-0.306
21,AACCGGCT,0.25
22,ACGCTGAT,0.0498
23,GTAAAATA,0.0594
24,ATAGCTTG,-0.09
25,AAGCGACC,0.0186

row,Sequence,PBM E-score
1,TACAGGGA,-0.152
2,CGTCGGAC,0.38
3,GGGGGCTA,0.0408
4,AGAACTGG,-0.185
5,AACGACCA,-0.237
6,AATACTGA,-0.19
7,AATGGCAT,0.0389
8,GGAGGACA,-0.109
9,ATGCTTCA,-0.174
10,GGACCAGA,-0.0836
11,TAAGACCA,-0.079
12,CTCCACCA,-0.0752
13,GGTCTAAA,0.0728
14,ACATACGG,0.117
15,GAAACAAC,-0.124
16,ACTTTCTA,-0.13
17,CGAGCTGC,-0.157
18,AGGTAGAA,-0.102
19,AAAAGGGC,-0.216
20,CGAGTTGA,-0.0448
21,GCACGGAA,-0.00259
22,GCGCATCA,-0.0162
23,GGGACTAA,0.246
24,AAAGGTGC,-0.0655
25,AGCTGCTC,-0.319

row,Sequence,PBM E-score
1,CAGCTTAC,-0.0458
2,ATCGTACC,0.157
3,AAGTCCAA,0.0242
4,GGTAGGCA,-0.125
5,AATTTCCA,-0.0589
6,CACGCAAA,-0.0178
7,AGAGGCGG,0.253
8,ATGACCGA,0.31
9,CTACCCGA,-0.0648
10,AAAAGTTC,-0.046
11,GGTACCAA,0.165
12,ATTTTCTA,-0.195
13,AAACTCTG,-0.125
14,CGGGCACC,0.167
15,GGACCTTA,0.2
16,CGTACTAG,-0.165
17,CCCTAGGC,-0.177
18,TAGTGAAA,-0.162
19,CACTGTCC,-0.199
20,CCCAGCCG,-0.203
21,GTACTTTA,0.00909
22,CTGCAACC,-0.192
23,AACTGATA,0.0121
24,CTCTCCGC,0.0985
25,CATTTGAA,0.0393

row,Sequence,PBM E-score
1,CGTGCTGC,-0.07
2,GTTAGTTA,0.056
3,AATAGATG,-0.00833
4,GCCGAGCC,0.0692
5,ACACTCGA,-0.2
6,AGTCCCCG,0.2
7,AATTGATC,-0.034
8,AGTGAGAT,-0.16
9,CATAAGGG,-0.0499
10,GAAACACC,0.249
11,CCGCTGGC,0.218
12,AGCCTATA,-0.196
13,GCCCACTA,-0.249
14,AGGGTCGG,0.317
15,CGGGTATA,0.403
16,AGAGCACT,-0.175
17,CCCTTGCG,-0.114
18,TATACCCA,-0.0259
19,ATGCGTAA,-0.0634
20,CGCAAGTC,-0.0245
21,AGTGTATC,-0.148
22,ATAATACG,0.153
23,CACTCACG,-0.0964
24,ACATACTG,-0.09
25,CAGGCCCG,0.109

row,Sequence,PBM E-score
1,AACGGAAA,0.129
2,CGGTGCTC,0.327
3,AGTCTCGA,-0.212
4,CTTCTCCC,-0.208
5,GTCCAGCA,-0.365
6,CTGATACC,0.153
7,CGGCGCTC,0.204
8,TCGCGTAA,0.144
9,AGAAATCG,0.0195
10,GACTCATA,-0.0292
11,AAGTCTCA,-0.205
12,AACGCATC,0.0343
13,AAAGATAG,-0.235
14,CTAATGAA,0.0677
15,AGTTAAGC,0.121
16,ACTAACAC,0.0421
17,CGCGAAAA,0.212
18,CCTAATCG,-0.0955
19,CTTTTGAA,0.0323
20,CTTGGAGA,-0.0702
21,ACGGAAGA,0.0597
22,ATATTATA,0.143
23,ATACACCG,0.402
24,AAGCGGCC,0.262
25,CGGCCTGA,0.236

row,Sequence,PBM E-score
1,CCGTACCG,0.28
2,ATTTAGAA,-0.0582
3,CTGGTCAA,-0.00732
4,CTAGACCA,-0.378
5,CACGAGCG,0.086
6,GGACCCAC,0.0454
7,GACAAAGA,-0.0701
8,GGCACAAA,0.122
9,CAGTGTAA,-0.141
10,CACTCCTC,-0.234
11,AGCTCCGG,0.362
12,CTACGACC,-0.0815
13,CCGGTCTA,0.216
14,AGGAGCTC,-0.144
15,AACCATTA,-0.0328
16,AGACCATC,-0.249
17,GAGGATGA,-0.0572
18,CAGGTCTA,-0.254
19,CAAACGGC,0.111
20,AAGCTGAC,-0.089
21,CCGGCATC,0.28
22,CCTGTGAC,-0.0962
23,ATTGAAGG,-0.046
24,AGCGTAGC,-0.0925
25,GAGATTGC,-0.0088

row,Sequence,PBM E-score
1,CTCCGCCC,0.397
2,CCTTCGTC,-0.227
3,GCAGAGTA,-0.202
4,AATAGCGG,0.322
5,GAGTATTA,0.0885
6,GAGCCCGA,0.264
7,ACCGCAGT,0.206
8,ACCGACCC,0.361
9,AAAAGGAC,-0.0304
10,AACCACTG,-0.192
11,TCGGAGCA,0.198
12,CCGAACCA,0.117
13,AAATGCCG,0.435
14,CCCTCTAC,-0.283
15,AATGATTC,-0.0738
16,AGCCCGCA,0.259
17,ACCTGAGA,-0.23
18,AGGCGACT,-0.112
19,CCTAAGGA,0.0237
20,CCCTATGC,-0.293
21,ACTTCGGA,0.116
22,AGAAAGCG,-0.0568
23,ACTCCCCA,-0.225
24,CGTAATCA,-0.128
25,AGTGTCTA,-0.106

row,Sequence,PBM E-score
1,CCGCCCCA,0.287
2,ATGGGTAA,-0.112
3,GTGGCAAC,0.0155
4,CTTACTCC,0.124
5,CTATAGTC,-0.155
6,CAACACCG,0.408
7,AAGAGTAA,-0.174
8,ACTTACAA,-0.151
9,AACCGTAT,0.0334
10,ATTCCTCG,-0.0859
11,AGATGGTC,0.0239
12,CAGAGTCA,-0.244
13,TATTCCCA,0.153
14,CGGATCCG,0.124
15,GGCCCTAA,0.207
16,TATAGGGA,-0.05
17,GCGGGTCA,0.0299
18,AGCCGTTA,0.0306
19,CGGGCAGC,-0.0267
20,CACCCGCG,0.18
21,CTAGTCAG,-0.258
22,GCCGCGGA,0.299
23,GAGACTAA,0.0679
24,GTACTGAC,-0.00036
25,ACATACCT,0.0844

row,Sequence,PBM E-score
1,GCGATTCC,0.0798
2,CTTACAAG,-0.134
3,AAATTTGA,-0.103
4,CCCCGTTA,0.293
5,CAGCCCAG,-0.278
6,AGGAGGTC,-0.161
7,AACGCTCT,-0.133
8,AACTACGG,0.198
9,CGATCTTC,0.112
10,ACTGCATC,-0.299
11,CGGTTAAA,0.259
12,GAGGTTGA,-0.14
13,CCTAGCGA,-0.379
14,ATTATAAA,0.117
15,AAGCCCCG,0.431
16,AATTTGAC,0.0338
17,GACTCAGA,-0.0449
18,CAGACCAC,-0.0981
19,TACCGAGA,0.102
